Reference: US20220017636A1 (Amgen, published 2022)

Columns and labels:
Experiment in all cases: flow cytometry, peptide-loaded T2 cells;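 further: binding of single-chain Fv antibody constructs, raised in XenoMouse, to peptide-pulsed T2 cells measured by flow cytometry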
[1] = target: T1, MYOF peptide complexed with HLA-A*02:01 on T2 cells (human)
T1 construct: whole, on cells

[2] = target: T2, MB peptide complexed with HLA-A*02:01 on T2 cells (human)
T2 construct: whole, on cells

[3] = target: T3, COX14 peptide complexed with HLA-A*02:01 on T2 cells (human)
T3 construct: whole, on cells

[4] = target: T4, STXBP5 peptide complexed with HLA-A*02:01 on T2 cells (human)
T4 construct: whole, on cells

[5] = target: T5, KEA peptide complexed with HLA-A*02:01 on T2 cells (human)
T5 construct: whole, on cells

[6] = target: T6, MAGEB2 peptide … (SEQ ID NO: 1) complexed with HLA-A*02:01 on the cell surface (human)
T6 construct: whole, on cells; also called pMAGE-HLA; MAGEB2 pMHC

[7] = target: T7, SLK peptide complexed with HLA-A*02:01 on T2 cells (human)
T7 construct: whole, on cells

[8] = target: T8, CNDP2 peptide complexed with HLA-A*02:01 on T2 cells (human)
T8 construct: whole, on cells; also called CNPD2

[9] = target: T9, DPYSL4 peptide complexed with HLA-A*02:01 on T2 cells (human)
T9 construct: whole, on cells

[10] = target: T10, ADF peptide complexed with HLA-A*02:01 on T2 cells (human)
T10 construct: whole, on cells

| Binder | Signal/background [1] | Signal/background [2] | Signal/background [3] | Signal/background [4] | Signal/background [5] | Signal/background [6] | Signal/background [7] | Signal/background [8] | Signal/background [9] | Signal/background [10] |
| --- | --- | --- | --- | --- | --- | --- | --- | --- | --- | --- |
| 18081-B6 (scFv, scFv in bacterial lysate, detected with anti-Flag M2) scFv: EVQLLESGPMLVKPTQTLTLTCTFSGFSFTTHKMGVDWIRQPPGKALEWLALIYWNDDKRYSPSLQSRLTITKDTSKNQVVLTMTNMDPVDTATYYCAYRRYNWNYENWFDPWGQGTLVTVSSGGGGSGGGGSGGGGSELVMTQSPSSLSASVGDRVTIT[letters of about 80 residues not shown]FGPGTKLEIK | 1 | 1.1 | 1 | 1 | 1 | 22 | 1.1 | 1 | 1 | 1.1 |
| 18081-F9 (scFv, scFv in bacterial lysate, detected with anti-Flag M2) scFv: EVQLLESGPMLVKPTQTLTLTCTFSGFSFTTHKMGVDWIRQPPGKALEWLALIYWNDDKRYSPSLQSRLTITKDTSKNQVVLTMTNMDPVDTATYYCAYRRYNWNYENWFDPWGQGTLVTVSSGGGGSGGGGSGGGGS[letters of about 100 residues not shown]FGPGTKVEIK | 1 | 1 | 1 | 1 | 0.9 | 36 | 1.2 | 1 | 1.2 | 1 |
| 18089-D8 (scFv, scFv in bacterial lysate, detected with anti-Flag M2) scFv: EVQLLESGPMLVKPTQTLTLTCTFSGFSFTTHKMGVDWIRQPPGKALEWLALIYWNDDKRYSPSLQSRLTITKDTSKNQVVLTMTNMDPVDTATYYCAYRRYNWNYENWFDPWGQGTLVTVSSGGGGSGGGGSGGGGSELVMTQSPDSLSASVGDRVTIT[letters of about 80 residues not shown]FGQGTRLEIK | 1.1 | 1 | 1 | 1 | 1 | 36 | 1.1 | 0.9 | 1.2 | 1 |
| 18181-H7 (scFv, scFv in bacterial lysate, detected with anti-Flag M2) scFv: EVQLLESGPGLVKPSQTLSLTCTVSGDSISSNPYYWSWIRQHPGKGLEWIGYISYSGITNYNPSLKSRVTMSVDTSKNQFSLKLTSLTAADTAVYYCAREKMWFGVLNYYYGMDVWGQGTTVTVSSGGGGSGGGGSGGGGSELVMTQTPLSLPVTPGEPASIS[letters of about 80 residues not shown]FGQGTKVEIK | 1 | 1 | 0.9 | 1 | 1 | 229 | 1 | 1 | 1 | 1 |
